In all, about 33,000 sequences were measured (“E-score (-0.5 to 0.5)”: median about -0.017, highest 2% from about 0.3 on). This is one part of the list.
These sequences were tested against T1, Sut1 (UniProt P53032) (assay: PBM E-score (8-mer binding enrichment) (E-score (-0.5 to 0.5)); higher = stronger / more preferred TF binding; most listed sequences are background and not binding sites). Details: protein concentration: 200 nM; construct: GST-full length.
T1 sequence: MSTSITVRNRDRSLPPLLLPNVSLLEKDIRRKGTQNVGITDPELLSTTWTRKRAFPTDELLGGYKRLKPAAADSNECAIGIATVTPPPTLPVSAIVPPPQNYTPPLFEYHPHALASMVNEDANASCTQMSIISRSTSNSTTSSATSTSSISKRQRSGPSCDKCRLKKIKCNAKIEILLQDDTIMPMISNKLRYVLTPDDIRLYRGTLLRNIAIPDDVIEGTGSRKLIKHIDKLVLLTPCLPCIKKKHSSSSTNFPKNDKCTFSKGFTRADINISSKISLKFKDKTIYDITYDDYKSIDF
Summary of the method: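 GST-tagged yeast TFs (full-length or DNA-binding domain) were made by PURExpress in vitro transcription/translation and applied at about 100-200 nM to universal all-10-mer Agilent arrays. The arrays were made double-stranded by primer extension, on fresh or once-stripped slides. Bound protein was detected with fluorescent anti-GST, and scans were normalised with masliner. Each ungapped eight-base word, pooled with its reverse complement, received an E-score (modified Wilcoxon-Mann-Whitney statistic) from the Universal PBM Analysis Suite.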

| Sequence | PBM E-score |
| --- | --- |
| AGCTTTGA | 0.0933 |
| AATATATT | 0.31 |
| CTTGAACC | 0.0226 |
| GACAGCCA | -0.131 |
| TCACAGAA | 0.0733 |
| ACATCACC | 0.0273 |
| CCATAAAA | 0.128 |
| ACAATATG | 0.115 |
| CACTTACG | 0.0375 |
| AACGCCTG | -0.16 |
| CGCTGAAC | -0.0166 |
| GCCAGTGA | -0.153 |
| ATCCCTTC | 0.0587 |
| ACTCTCCA | 0.0307 |
| AACGACGC | 0.139 |
| CAACCCGC | -0.0679 |
| CGCCCAAA | -0.0114 |
| AGTCGCAC | -0.167 |
| AATTCTTG | 0.155 |
| CGATTCCC | -0.0189 |
| AGTGAGTG | 0.0493 |
| CTATACTC | -0.0209 |
| AGCCGCCC | -0.165 |
| CTCGCGGC | -0.147 |
| CCGAACAG | 0.143 |

| Sequence | PBM E-score |
| --- | --- |
| CGTGTAGC | -0.26 |
| GATGAATC | 0.101 |
| ACTCTAAC | 0.127 |
| ACAAAATA | 0.254 |
| ATTGTAGC | -0.0178 |
| CATATCAC | 0.0564 |
| ATCTATCC | 0.244 |
| AGGTATCA | 0.0326 |
| CCTAGTTA | 0.148 |
| CATCGTAG | -0.282 |
| CCCACTCA | 0.0163 |
| GGACCAAA | -0.0301 |
| GGCCATAC | -0.0824 |
| ACGAGTCC | 0.0395 |
| ACGCTTAC | -0.0439 |
| AGGAACAA | -0.0298 |
| ACTAAGAA | 0.157 |
| AGTTCGGC | 0.126 |
| TATGAGGA | -0.0297 |
| TACATTGA | 0.0782 |
| ACGTTACG | -0.0887 |
| TATCCCAA | -0.0712 |
| AGACTTAG | -0.225 |
| GTAACCCA | 0.163 |
| ACGACACG | 0.0774 |

| Sequence | PBM E-score |
| --- | --- |
| ACCAACGA | -0.0955 |
| GTCACCAC | -0.12 |
| GCACAAGA | 0.00621 |
| TCCCGAGA | -0.0188 |
| CAAGGTCC | 0.13 |
| AGCTTTCG | -0.185 |
| CAAGCCTA | -0.0329 |
| CTTTGGAC | 0.0214 |
| ATTCTCGG | 0.28 |
| CACTAGCG | -0.128 |
| CCAGGGTA | -0.203 |
| GCGGGCTA | -0.126 |
| ACGAGCAT | -0.082 |
| CCGTACTA | 0.297 |
| GATTACTA | 0.166 |
| AAACCCCG | 0.441 |
| TCGACGCA | -0.121 |
| CTGTCATC | -0.155 |
| CATTAAGC | -0.0114 |
| GTATATAC | 0.316 |
| ACCTTTAA | 0.13 |
| AAATGAGG | -0.0395 |
| GCCTCGCC | -0.339 |
| ATGTCGAC | 0.0925 |
| CTCGTCCA | -0.0495 |

| Sequence | PBM E-score |
| --- | --- |
| AAGATCGA | 0.0882 |
| GTCATGAA | -0.0184 |
| AATGTGAT | 0.0868 |
| ACGGTCGC | -0.254 |
| AGCGCACC | -0.0534 |
| GATTCACC | 0.0355 |
| GTCGACCA | -0.216 |
| AGGCTACT | -0.136 |
| AGGGTGTA | -0.119 |
| CTGGCCCC | -0.205 |
| CTACTGGC | -0.24 |
| GGTCCACA | -0.325 |
| AACACTCG | 0.0637 |
| AAAGGACC | 0.00629 |
| CTCTGAGC | -0.225 |
| ATGACCAA | 0.0389 |
| CTCCAGCA | -0.173 |
| AATAGCGC | 0.0508 |
| GGATAGCC | 0.0369 |
| GCCCCTAC | -0.327 |
| AGTTAAAA | 0.285 |
| ACAAGGTA | 0.0911 |
| CCGAACAC | 0.195 |
| AAGAGAAT | 0.0867 |
| ATTGCTAC | 0.111 |

| Sequence | PBM E-score |
| --- | --- |
| TCGTAAGA | 0.0115 |
| GTGTAACA | -0.025 |
| CGGGAACC | -0.174 |
| AAGTGTTC | 0.0702 |
| AAGTATGA | -0.00985 |
| GTAGTCAA | 0.0841 |
| GACTTGGA | -0.0651 |
| AATTCCAT | 0.0698 |
| CGGTCTGC | -0.19 |
| CGACGAAA | 0.0757 |
| GATAACCC | -0.0815 |
| ATTGTCCC | -0.108 |
| ACCCGGTG | -0.224 |
| CAAATGGC | 0.0392 |
| ACGATGAA | 0.0815 |
| ACGGTGGC | -0.198 |
| AAAGAAGA | 0.0444 |
| CGTTGGAC | -0.218 |
| AACGCAGG | -0.129 |
| CCGGTATC | 0.00301 |
| GTACTTCA | 0.234 |
| CTATCGAA | 0.115 |
| AACCACCG | 0.0748 |
| ACGCGGAA | 0.112 |
| ACCGTAGA | 0.0336 |

| Sequence | PBM E-score |
| --- | --- |
| CGTACACG | -0.134 |
| AAGGGCGG | -0.0711 |
| GACATTTA | 0.0718 |
| CATCATCA | 0.0301 |
| AGCACTCA | -0.0584 |
| ACGACACC | -0.214 |
| CATCTCAG | -0.0547 |
| CATGCAAA | 0.0375 |
| CAGCTGCG | -0.278 |
| CCAACCTA | 0.0103 |
| CACCATAG | -0.221 |
| CATAACAC | 0.0299 |
| GGCCAAAA | -0.0526 |
| AGATGCGG | -0.0079 |
| AAATTCAA | 0.261 |
| ACACTACT | 0.0448 |
| CGAATCCC | 0.073 |
| CATCCTAA | 0.0282 |
| ACACAAGC | -0.056 |
| TGACTTAA | 0.153 |
| ACTGCCAG | -0.114 |
| GGTCTTAA | -0.0856 |
| AACACGTG | -0.0381 |
| ATACCCAT | -0.0242 |
| CTTTGTAC | -0.0681 |

| Sequence | PBM E-score |
| --- | --- |
| TCTTGAAA | 0.267 |
| CTAGGCCA | -0.145 |
| GAGAATAC | 0.0703 |
| CATGACAA | -0.00952 |
| CCTCTAGC | -0.219 |
| ACGCCATA | -0.131 |
| CAGCCAGG | -0.296 |
| AAGCCGCG | -0.0669 |
| CCCCGTCC | -0.194 |
| CCGCATGA | -0.0793 |
| AATGGACC | 0.12 |
| ATAGTATC | 0.213 |
| ACCTGATG | -0.238 |
| AGCAAGTA | -0.079 |
| ACATTTGC | 0.0426 |
| ACAGAATG | -0.116 |
| AAAACGCA | -0.0411 |
| GGCCGCTA | -0.153 |
| ACAACCCG | 0.0142 |
| AATTCGGG | 0.17 |
| AAAGCCAG | -0.0144 |
| AGGGTTAA | 0.00212 |

— the supplement of paper PMC3334620
